# About 14,000 (4.5%) of roughly 310,000 compounds showed an effect of 50% or more. The effect is printed as a negative number. The list shows a part of the results. Where a SMILES comes first, the peptide text is derived from it. [ ]: non-standard residue; d: D form. The star is where a group is joined. ξ: configuration not given here. Cbz = O=C(OCc1ccccc1)*; ξA = CC(N)C(=O)O
# Molecular target: human ether-à-go-go-related gene (hERG) potassium channel (human, UniProt Q12809)
# Experiment: primary screen, population patch clamp on CHO cells stably expressing hERG
# 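Note: peak tail current of the secondary pulse compared with the same well before compound.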
# human ether-à-go-go-related gene (hERG) potassium channel, sequence (Q12809 whole entry, looked up): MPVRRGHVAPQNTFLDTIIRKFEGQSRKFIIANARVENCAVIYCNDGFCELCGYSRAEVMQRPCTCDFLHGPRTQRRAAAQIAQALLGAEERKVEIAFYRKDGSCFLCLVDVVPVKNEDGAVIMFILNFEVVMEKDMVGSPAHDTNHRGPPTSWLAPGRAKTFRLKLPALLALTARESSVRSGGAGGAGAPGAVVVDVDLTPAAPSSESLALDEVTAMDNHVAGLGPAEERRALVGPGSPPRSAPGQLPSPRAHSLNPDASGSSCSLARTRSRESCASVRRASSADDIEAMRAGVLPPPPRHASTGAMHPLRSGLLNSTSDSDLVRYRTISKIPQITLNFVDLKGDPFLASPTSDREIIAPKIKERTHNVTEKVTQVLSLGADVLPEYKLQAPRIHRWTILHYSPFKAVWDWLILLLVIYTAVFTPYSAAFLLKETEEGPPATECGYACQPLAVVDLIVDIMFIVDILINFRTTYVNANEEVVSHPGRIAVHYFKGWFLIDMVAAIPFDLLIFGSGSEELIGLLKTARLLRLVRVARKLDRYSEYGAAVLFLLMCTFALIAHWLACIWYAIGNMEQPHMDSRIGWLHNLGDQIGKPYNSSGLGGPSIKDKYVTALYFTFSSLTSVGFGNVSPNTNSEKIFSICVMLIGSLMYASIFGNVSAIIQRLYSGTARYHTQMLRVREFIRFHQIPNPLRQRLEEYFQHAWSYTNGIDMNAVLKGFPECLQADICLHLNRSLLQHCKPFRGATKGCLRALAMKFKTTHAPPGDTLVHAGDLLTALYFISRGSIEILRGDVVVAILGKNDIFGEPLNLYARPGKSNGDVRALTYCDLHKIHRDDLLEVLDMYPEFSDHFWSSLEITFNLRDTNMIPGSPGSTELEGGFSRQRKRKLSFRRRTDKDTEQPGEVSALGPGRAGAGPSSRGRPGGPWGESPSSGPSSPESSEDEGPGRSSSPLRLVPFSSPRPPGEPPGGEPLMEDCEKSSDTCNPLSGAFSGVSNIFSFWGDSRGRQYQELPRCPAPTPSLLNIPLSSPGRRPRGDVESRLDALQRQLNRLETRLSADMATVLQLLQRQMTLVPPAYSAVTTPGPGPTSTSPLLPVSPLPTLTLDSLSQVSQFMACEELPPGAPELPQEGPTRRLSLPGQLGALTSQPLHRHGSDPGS
row,Compound,"hERG current change (%, negative = inhibition) at 10uM [%]"
1,NC(=O)c1nsc(C(=O)N(c2ccccc2F)C(C(=O)NCc2ccccc2)c2ccc(O)cc2)c1N (stereo not shown),-7.18
2,O=C(c1ccco1)N1CCN(Cc2cc(=O)c(OCc3cccc(F)c3)co2)CC1,-76.4
3,CCC(=O)NC(c1ccccc1)c1c(OC(C)=O)ccc2ccccc12 (stereo not shown),-13.4
4,CC(=O)CSc1nnc(CSc2ncccn2)n1C1CCCCC1,-18.8
5,Cc1cccc(C)c1N1C(=O)CN(Cc2ccccc2)C1=S,-28.4
6,COC(=O)CNC(=O)C(C)NC(=O)CNC(=O)OCc1ccccc1 (stereo not drawn) (Cbz-Gly-[ξA]-Gly-OMe),-1.25
7,C/C(=N\Nc1ccc(Cl)c(C(=O)O)c1)c1cccc2ccccc12,-9.41
8,O=C(NCc1ccccn1)C1CCN(S(=O)(=O)c2cnc[nH]2)CC1,9.99
9,O=C(O)C1CC(=O)n2c(nc3ccccc32)S1 (stereo not shown),18.5
10,O=C(CN(Cc1ccccc1)C(=O)CNS(=O)(=O)c1ccccc1)NCC1CCCO1 (stereo not shown),1.85
11,Nc1nc(NC(=O)c2ccccc2Cl)nn1-c1ccccc1,1.53
12,CCOc1ccc(S(=O)(=O)NCCC(=O)N2CC(C)CC(C)C2)cc1 (stereo not shown),-22.2
13,C=CCC(COCc1ccccc1)NS(=O)(=O)c1ccccc1Br (stereo not shown),-2.59
14,CCOC(=O)C(CC)/C(C)=N/NC(=O)c1ccccc1[N+](=O)[O-] (stereo not shown),-14
15,COc1cc(NS(=O)(=O)c2ccc(NC(=O)C3CCCO3)cc2)nc(OC)n1 (stereo not shown),6.87
16,Cc1cccc([N+](=O)[O-])c1C(=O)O,11.6
17,CC(Nc1cccnc1)=C(C#N)C#N,1.13
18,COc1ccc(-c2cc3nc(C)c(CCC(=O)NCc4ccc(F)cc4)c(C)n3n2)c(OC)c1,-60.4
19,Cc1cnc(CN(C)C(=O)CC2C(=O)NCCN2CCCc2ccccc2)[nH]1 (stereo not shown),12.9
20,CC(NC(=O)/C(C#N)=C1\N=C(NC(=O)c2cccs2)c2ccccc21)c1ccccc1 (stereo not shown),6.61
21,N#Cc1ccccc1NC(=S)NC(=O)C1CCC1,9.95
22,COc1ccc(CNC(=O)N2CCc3ccccc3C2)cc1Cl,5.83

row,Compound,"hERG current change (%, negative = inhibition) at 10uM [%]"
1,Cc1ccc(C(=O)Nc2ccccc2)cc1S(=O)(=O)Nc1ccc(Cl)cn1,7.53
2,Cl.O=C(Nc1nnc(CCN2CCCCC2)s1)c1ccccc1,4.58
3,O=C(Cc1ccc(Br)cc1)N1CCN(C(=O)c2ccco2)CC1,-32.3
4,CCOc1ccc(-n2c(=O)[nH]c3sc4c(c3c2=O)CCCC4)cc1,16.7
5,CCCCNc1nc(-c2ccccc2)nc(-n2ccnc2)n1,12.2
6,O=C(CSc1nc(N2CCOCC2)nc(N2CCOCC2)n1)Nc1ccc([N+](=O)[O-])cc1,-12.8
7,COCCNC(=O)c1cccc(S(=O)(=O)N2CC3(C)CC2CC(C)(C)C3)c1 (stereo not shown),-13.1
8,Cn1cccc1/C=N/N1CCN(Cc2ccc(Cl)cc2)CC1,-17.8
9,CCOC(=O)Cn1nc(-c2ccccc2)nc1-c1ccccc1,-9.06
10,CCN(CC(=O)Nc1c(F)cccc1F)C(=O)c1ccc(N2CCOCC2)c([N+](=O)[O-])c1,0.198
11,O=C(c1cccc(S(=O)(=O)N2CCCCC2)c1)N1CCN(S(=O)(=O)c2ccc(F)cc2)CC1,-40.6
12,COCCn1c(C)c(C)c2c(NCCc3ccccc3)ncnc21,-29.3
13,COc1cccc(NC(=O)COc2cc(O)c3c(c2)OC(C)(C)CC3=O)c1,-19.9
14,CCCS(=O)(=O)N1CCC(C(=O)NC2CCC(C)CC2)CC1 (stereo not shown),12.5
15,CCOC(=O)C1=C(C)N(C)C2(C)CC1c1ccccc1O2 (stereo not shown),-17.5
16,O=C(Nc1ccc(OC(=O)N2CCCCC2)cc1)N1CCOCC1,4.57
17,O=C(c1cccc2c1C(=O)N(Cc1cccnc1)C2)N1CCN(c2ccccc2)CC1,-6.06
18,CC(c1nnc(Sc2nnnn2-c2ccccc2)n1-c1ccc(F)cc1)N(C)C (stereo not shown),3.57
19,COc1cccc(C(=O)Nc2ncc3c(n2)CC(C)(C)CC3=O)c1,-19.3
20,CCCCN(CC)CCNC(=S)Nc1ccc2nc(N3CCN(C)CC3)cc(C)c2c1,-0.781
21,CCCN1CCC(NC(=S)Nc2cccc(Cl)c2Cl)CC1,-4.2

# — paper PMC4336329 (PLoS ONE, 2015)
